Measured values reported in PubChem BioAssay AID651820 (National Center for Advancing Translational Sciences (NCATS), 2012).
Among all 340,000 compounds or so, about 12,000 (3.5%) were called active. Inconclusive results, whose numbers are uncertain, are shown with a selection of clear calls. Calls follow the shape of the dose curve; as a rule, active = well fitted inhibition curve with a large enough effect; inconclusive = small, poorly fitted or top-dose-only effect, or another doubt; inactive = no such curve, though single readings can be large or run the other way. Potencies of inconclusive entries are left out as doubtful fits.

Experiment: qHTS Assay for Inhibitors of Hepatitis C Virus (HCV)
Conditions: Huh7.5.1 HCVcc-Cre (HCVcc is cell-culture hepatitis C virus) infection, luciferase reporter, 44 h; activity change, negative = inhibition: at 41.8 µM (top of the series) unless noted
Outline: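 After 44 h co-culture of compound, cells and HCVcc-Cre (~0.5 moi), substrate is added for 15 min at room temperature and luciferase measured over 15 sec. Cells were seeded at 1,000/well and pre-cultured 4 h.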
% is scaled to controls: 0 for no effect and ±100 for the full control effect; potency is read from the fitted curve at half-maximal effect; tags tell the direction and shape of the fitted curve.

Compound | Potency | activity change, negative = inhibition
COc1ccc(C(=O)NC(=S)NC(C)C)cc1Br | inconclusive [inhibitor, partial curve] | 
COc1cc(-c2nc(Cc3ccccc3Cl)no2)cc(OC)c1OC | inconclusive [inhibitor, full curve] | 
Cc1nc(C)c(-c2csc(Nc3cccnc3)n2)s1 | inconclusive [inhibitor, full curve] | 
CCOC(=O)c1cnn(-c2ccccc2)c1-n1cccc1C(=O)C(=O)N(CC)CC | inconclusive [inhibitor, partial curve] | 
Cc1cccc(NCc2cc(Cl)cc(Cl)c2O)n1 | inconclusive [inhibitor, single point] | 
Cc1nc2nc[nH]n2c(=O)c1CC(=O)O |  | inactive: 8.42%
CCCOc1ccc(C2/C(=C(/O)c3ccc(F)cc3)C(=O)C(=O)N2CCCN(C)C)cc1 (stereo not given) |  | inactive: 12.9%
O=C(Nc1ccc2oc(-c3ccncc3)nc2c1)c1ccccc1 |  | inactive: 0.162%
NC(=O)c1c(NC(=O)C2c3ccccc3Oc3ccccc32)sc2c1CCCCC2 | inconclusive [inhibitor, single point] | 
COc1ccccc1NC(=O)Cc1ccc(-c2ccccc2)cc1 | inconclusive [inhibitor, partial curve, poor fit] | 
CCC(C)c1ccc(NC(=O)CN(C)CC(=O)Nc2cccc(OC)c2)cc1 (stereo not given) |  | inactive: 7.2%
CC(C)COc1cccc(C(=O)N(C)CC(=O)Nc2cccc3ccccc23)c1 |  | inactive: -2.81%
COc1ccc(CCNC(=O)C2CC(c3c(Cl)cccc3Cl)=NO2)cc1 (stereo not given) | inconclusive [inhibitor, single point] | 
Cc1ccccc1-n1c(SCC(=O)Nc2ccc3c(c2)OCO3)nnc1-c1ccccn1 | active: 22.4 µM | 
C=CCn1c(SCc2csc(C)n2)nc2sc3c(c2c1=O)CCC(C)C3 (stereo not given) | inconclusive [inhibitor, partial curve] | 
Cc1ccc(C)c(NC(=O)CN(C)C(=O)c2ccccc2OCc2ccc(Cl)cc2)c1 | inconclusive [inhibitor, full curve] | 
CC(C)C(NC(=O)c1c(F)cccc1F)C(=O)N1CCN(c2ncccn2)CC1 (stereo not given) |  | inactive: 14.7%
O=C(Nc1ccc2c(c1)OCCO2)c1cccc2nc3ccccc3nc12 | inconclusive [inhibitor, single point] | 
O=C(NC1=NCCS1)c1cccc2ccccc12 |  | inactive: 14.4%
O=C(Nc1ccc(F)cc1)c1cc2c(s1)CCCC2 |  | inconclusive: -50.6% [inhibitor]
COC(=O)c1ccc2c(=O)[nH]c(COC(=O)c3c(-c4ccccc4Cl)noc3C)nc2c1 | inconclusive [inhibitor, partial curve] | 
COc1ccccc1CNC(=O)C1CC(c2ccc([N+](=O)[O-])cc2)=NO1 (stereo not given) |  | inactive: -15.5%
COc1cc2c(cc1O)C[C@H]1c3c(cc(O)c(OC)c3-2)CCN1C | inconclusive [inhibitor, full curve, poor fit] | 

Compound | Potency | activity change, negative = inhibition
Cc1cc(=O)[nH]c(N/N=C/c2cc(C)n(-c3ccccc3)c2C)n1 | inconclusive [inhibitor, single point] | 
COc1ccc(Cl)cc1C(=O)OCC(=O)NC1CCCC(C)C1C (stereo not given) |  | inactive: 11.8%
CCCCCCCCCCC[C@@H](C[C@@H]1OC(=O)[C@H]1CCCCCC)OC(=O)[C@H](CC(C)C)NC=O |  | inactive: -2.81%
CN(C)S(=O)(=O)N1CCC(Oc2cccc(C(=O)NC3CCCCC3)c2)CC1 | active: 5.62 µM | 
CC(=O)Oc1ccc(-c2ccc(C(=O)OCC(=O)N(C)CC(=O)Nc3ccccc3Cl)cc2)cc1 | inconclusive [inhibitor, partial curve] | 
Cc1nc(N2CCN(S(=O)(=O)c3ccccc3)CC2)c2cc(-c3ccccc3)sc2n1 | inconclusive [inhibitor, partial curve] | 
O=C(CSCc1nc2ccccc2[nH]1)N1CCN(c2ccc(F)cc2)CC1 | active: 12.6 µM | 
CN(C)CCCNc1oc(-c2ccc(Cl)cc2)nc1S(=O)(=O)c1ccccc1 | inconclusive [inhibitor, single point] | 
O=C1/C(=C/c2cccnc2)CCC/C1=C\c1cccnc1 | inconclusive [inhibitor, full curve, poor fit] | 
CCN1CCCC1CNC(=O)c1cc(COc2ccc(C)c(C)c2)on1 (stereo not given) | inconclusive [inhibitor, partial curve] | 
Cc1cc(C)c(S(=O)(=O)c2ccccc2C)c(SCC(C)C)n1 | inconclusive [inhibitor, partial curve] | 
CC[C@@H](C)[C@H](NC(=O)OCc1ccccc1)c1nnc([C@@H](NC(=O)OCc2ccccc2)[C@@H](C)CC)o1 | inconclusive [inhibitor, full curve, poor fit] | 
O=C(Nc1cccc2cccnc12)c1cccc2ccccc12 | inconclusive [inhibitor, single point] | 
S=C(Nc1ccccc1)Nc1nccs1 | inconclusive [inhibitor, single point] | 
O=C(NC1C2CCCC1CN(C1CC1)C2)c1ccc(Cl)cc1 (stereo not given) | inconclusive [inhibitor, single point] | 
O=C(COC(=O)c1c(F)cccc1Cl)NC(=O)Nc1ccc2c(c1)OCCO2 |  | inactive: -3.66%
CCOC(=O)C1CCN(C(=O)CCn2c(=O)[nH]c3ccsc3c2=O)CC1 |  | inactive: 11.7%
Cc1ccc(OCc2nnc(SCC(=O)c3cccc([N+](=O)[O-])c3)n2C)cc1 | active: 8.91 µM | 
CCN(CC(=O)NCc1ccc(Cl)cc1)C(=O)c1cc(S(=O)(=O)N2CCOCC2)ccc1C | inconclusive [inhibitor, full curve, poor fit] | 
c1ccc(Cn2ncc3c(N4CCCCC4)ncnc32)cc1 | inconclusive [inhibitor, single point] | 
CCc1ccc(C(=O)COC(=O)c2cc([N+](=O)[O-])ccc2NCCO)cc1 | inconclusive [inhibitor, partial curve] | 
C=CCNC(=O)c1ccccc1NC(=O)c1ccc(Cl)c(S(=O)(=O)Nc2cc(C)ccc2C)c1 | active: 12.6 µM | 
